Holding throughout (experiment): Primary Screen for Target Class Profiling of Small Molecule Inhibitors of Methyltransferases
The target in test [1] is Glycine N-methyltransferase (Homo sapiens) (UniProt Q14749). The settings on record: purified enzyme, MTase-Glo SAH luminescence; measured here: GNMT inhibition; at 40 µM; stronger effect = lower value. The essentials: (§1)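 Each enzyme was assayed with SAM and its substrate. SAH formation detected by MTase-Glo luminescence; single-point 40 uM screen[…].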
Test [2] addresses Guanidinoacetate N-methyltransferase (Homo sapiens) (UniProt Q14353). The settings on record: purified enzyme, MTase-Glo SAH luminescence; measured here: GAMT inhibition; at 40 µM; stronger effect = lower value. The procedure, abridged:
as §1

For test [3], the target named is Histamine N-methyltransferase (Homo sapiens) (UniProt P50135). The settings on record: purified enzyme, MTase-Glo SAH luminescence; measured here: HNMT inhibition; at 40 µM; stronger effect = lower value. The essentials:
as §1

The target of test [4] is Nicotinamide N-methyltransferase (Homo sapiens) (UniProt P40261). The settings on record: purified enzyme, MTase-Glo SAH luminescence; measured here: NNMT inhibition; at 40 µM; stronger effect = lower value. The procedure, abridged: as §1
For test [5], the target named is Phenylethanolamine N-methyltransferase (Homo sapiens) (UniProt P11086). The settings on record: purified enzyme, MTase-Glo SAH luminescence; measured here: PNMT inhibition; at 40 µM; stronger effect = lower value. The essentials:
as §1

The list shows a part of the results. Further columns of the screen follow, without active or inactive calls.
On the % scale 0 is the no-effect control and ±100 the full control effect.

For `CCCN1CCN(CCCNC(=O)c2cc3n(n2)CC(C)(C(=O)NC2CCCC2)N(C)C3=O)CC1` (stereo not given), the activity change, negative = inhibition in test [1] is -2.17%; in test [2], 0%; in test [3] it was 3.65%; in test [4], -6.29%; in test [5], -3.53%.
In the same order, the values of `CC1(C(=O)NC2CCCCCC2)Cn2c(ccc2-c2ccco2)C(=O)N1CCc1cccc(Cl)c1` (stereo not given) are -3.31%, 4.72%, -0.764%, 1.91% and -0.797%.
In the case of `O=[S+]1([O-])NC2(CCN(Cc3ccccc3C(F)(F)F)C2)CNc2ccccc21` (stereo not given), the activity change, negative = inhibition in test [1] was -9.85%; in test [2], -6.85%; in test [3], -5.34%; in test [4], -11.4%; in test [5], -9.28%.
`O=C1CC2(CCN(C(=O)C3CCN(C(=O)c4ccccc4F)CC3)CC2)Oc2ccccc2N1`: the activity change, negative = inhibition in test [1] is -7.53%; in test [2], -6.79%; in test [3] it was -3.16%; in test [4] it was -7.77%; in test [5] it was -7.64%.
The matching figures for `O=C(CCc1ccccc1)N1CC(Oc2ccccc2-c2nc(-c3ccccc3)no2)C1`: -4.62%, 1.91%, -1.72%, -12.5% and -3.34%.
`Cc1ccc(C(=O)N2C[C@@H](C)[C@](O)(C3CC3)C2)s1`: the activity change, negative = inhibition in test [1] is -5.18%; in test [2], -10.6%; in test [3], -4.56%; in test [4], -8.29%; in test [5], -6.67%.
As to `CC(=O)NC1(C)CCN(Cc2cccc(-c3ccc4c(ccn4C)c3)c2)C1` (stereo not given), the activity change, negative = inhibition in test [1] was -12%; in test [2], -11.1%; in test [3], -45.1%; in test [4] it was -18.5%; in test [5], -20.8%.
Take `C[C@@H]1C[C@@H](O)[C@@]2(CO)C(CO)=CCC[C@@H]2[C@@]12C[C@@H](c1ccoc1)OC2=O`: the activity change, negative = inhibition in test [1] was 2.26%; in test [2], 1.9%; in test [3], 7.22%; in test [4] it was -7.31%; in test [5], 1.29%.
In the same order, the values of `Cc1csc(NC(=O)c2ccc3c(c2)OCC(=O)N(C)C3)n1` are -14.5%, -10.5%, -4.08%, -16.9% and -9.12%.
`CN(C)c1ccc(C2Nc3ccc4ccccc4c3C3=C2C(=O)CC(C)(C)C3)cc1Br` (stereo not given): the activity change, negative = inhibition in test [1] was -3.73%; in test [2] it was -20%; in test [3], 8.7%; in test [4], -42.5%; in test [5], -7.66%.
As to `CCOc1ccccc1CN1C(=O)c2cc(C3CC3)nn2CC1(C)C(=O)NC1CCCCCC1` (stereo not given), the activity change, negative = inhibition is -1.77% in test [1]; 4.63% in test [2]; 2.2% in test [3]; -7.34% in test [4]; 0.278% in test [5].
In the same order, the values of `CCCN1C(=O)c2cc(C(=O)NCc3cc(OC)ccc3OC)nn2CC1(C)C(=O)NC1CCCC1` (stereo not given) are -5.14%, 1.87%, -5.17%, -5.93% and -3.02%.
In the same order, the values of `Cc1cc(C)cc(N2C(=O)c3cc4sccc4n3CC2(C)C(=O)NC2CCCC(C)C2C)c1` (stereo not given) are -2%, 5.25%, 0.732%, -1.76% and 1.27%.
In the same order, the values of `COc1ccc(NC(=O)Cn2c(=O)oc3cc(S(=O)(=O)N4CCCC4)ccc32)cc1` are -0.122%, 5.16%, 0.695%, 2.2% and -4.97%.
As to `CN1CCN(c2ccc(C(=O)Nc3n[nH]c4ccc(Cc5cc(F)cc(F)c5)cc34)c(NC3CCOCC3)c2)CC1`, the activity change, negative = inhibition is -0.396% in test [1]; 16.4% in test [2]; -0.137% in test [3]; -13.6% in test [4]; 8.76% in test [5].
As for `Cc1ccc(NC(=O)Cn2nc3n(CCCOC(C)C)c(=O)c4ccccc4n3c2=O)cc1C`, the activity change, negative = inhibition was found to be 2.54% in test [1]; 0.754% in test [2]; 4.24% in test [3]; 1.91% in test [4]; 3.83% in test [5].
As for `CCc1ccccc1NS(=O)(=O)c1ccc2c(c1)NC(=O)C(C)C(=O)N2` (stereo not given), the activity change, negative = inhibition in test [1] was -1.64%; in test [2], 1.27%; in test [3], -3.79%; in test [4], 2.33%; in test [5] it was -5.2%.
As for `O=C(C1CCCN1[S+](=O)([O-])c1cccc(C(F)(F)F)c1)N1CCC(N2CCCC2=O)CC1` (stereo not given), the activity change, negative = inhibition in test [1] is -6.01%; in test [2] it was -4.23%; in test [3] it was -1.46%; in test [4], -8.04%; in test [5], -4.06%.
In the same order, the values of `Cc1nc([C@@H]2CN(C(=O)c3ccc(Cn4ccnc4)o3)C[C@H]2C(N)=O)n[nH]1` are -0.323%, -0.665%, 0.406%, -2.46% and 13.1%.
In the same order, the values of `COC(=O)c1cc2n(n1)CC(C)(C(=O)NC1CCCC1)N(Cc1ccc(OC)cc1OC)C2=O` (stereo not given) are 2.56%, 3.81%, 9.76%, 2.82% and 3.21%.
The matching figures for `COc1ccc2c(c1)C=C(CN1CCCC(O)(CN(C)C)C1)CO2` (stereo not given): -1.95%, 1.39%, -4.07%, -6.62% and 13%.
On to `NC(=O)CNC(=O)C1=C[C@@H](NC(=O)Cc2cccs2)[C@@H](O)[C@H](O)C1`, for which the activity change, negative = inhibition in test [1] was -2.85%; in test [2], -4.37%; in test [3], -0.413%; in test [4], -9.32%; in test [5], 7.74%.
Take `COc1ccccc1CC(=O)N1CCc2c(nc3cc(-c4ccccc4Cl)[nH]n3c2=O)C1`: the activity change, negative = inhibition was -16.3% in test [1]; -12.3% in test [2]; -14% in test [3]; -10.4% in test [4]; -9.39% in test [5].
As to `COc1ccccc1NC(=O)OCC1CCN(C(=O)OC(C)(C)C)CC1`, the activity change, negative = inhibition in test [1] is -5.12%; in test [2] it was 0.717%; in test [3], 0.086%; in test [4], -17.9%; in test [5] it was -11.4%.
For `COc1ccc(CNC(=O)c2ccc3c(=O)nc4c(-c5cccc(C)c5)n[nH]n4c3c2)cc1`, the activity change, negative = inhibition is -18.3% in test [1]; 1.53% in test [2]; -6.75% in test [3]; -11.8% in test [4]; -8.19% in test [5].
In the same order, the values of `OCc1cc(CC2(NCc3ccccc3O)COC2)no1` are -2.31%, -0.588%, 1.4%, -1.62% and 11.1%.
The matching figures for `CCOc1ccc(N2C(=O)c3cc4sccc4n3CC2(C)C(=O)NC2CCCCCCC2)cc1` (stereo not given): 6.82%, 2.69%, 10.2%, 10.3% and 5.58%.

The values are drawn from PubChem BioAssay AID1745853 (National Center for Advancing Translational Sciences (NCATS), 2022).
